According to the supplement of paper PMC9446081:
In all, about 39,000 compounds went through this assay and about 220 (0.56%) showed activity. Some of the results follow.

The compounds below were run on Escherichia coli K-12 BW25113 (assay: relative growth (OD600 normalised to plate interquartile mean) (fraction); higher = less growth inhibition, active = 0.2 or less). Details: 50 µM; LB; incubation time: overnight (16-24 h).
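Further: static incubation at 37 °C against the wild-type strain, values averaged over two biological replicates.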

SMILES	relative growth
C[C@@H]1CCCCO[C@@H](CN(C)CC2CCCCC2)[C@H](C)CN([C@H](C)CO)C(=O)c2cc(NC(=O)Nc3cccc4ccccc34)ccc2O1	inactive: 0.961
CCCNC(=O)N[C@H]1CC[C@H](CC(=O)N2CCN(C)CC2)O[C@H]1CO	inactive: 1.02
Cc1cc(=O)oc2c(O)c(O)ccc12	inactive: 1.06
Cc1noc(C)c1NC(=O)Nc1ccc2c(c1)C(=O)N([C@@H](C)CO)C[C@H](C)[C@H](CN(C)Cc1ccc(C(=O)Nc3ccccc3N)cc1)O2	inactive: 0.977
O=C([C@H]1[C@H](CO)[C@H]2Cn3c(cccc3=O)[C@H]2N1C(=O)C1CCCC1)N1CCOCC1	inactive: 0.994
COC(=O)[C@@H](N)CS[C@H]1CCCCO1	inactive: 0.998
COc1ccc(CN(C)C[C@@H]2OCCCC[C@@H](C)Oc3ccc(NC(=O)NC4CCCCC4)cc3C(=O)N([C@@H](C)CO)C[C@@H]2C)cc1	inactive: 0.96
C[C@H](CO)N1C[C@H](C)[C@@H](CN(C)Cc2ccc(Cl)c(Cl)c2)Oc2c(NC(=O)Nc3ccccc3)cccc2C1=O	inactive: 0.953
COc1ccccc1-c1ccc2c(c1)O[C@@H](CN(C)CC1CCOCC1)[C@H](C)CN([C@@H](C)CO)S2(=O)=O	inactive: 0.976
CC(C)(C)c1ccc(C(O)CCCN2CCC(C(O)(c3ccccc3)c3ccccc3)CC2)cc1 (configuration not stated)	inactive: 0.888
O=C(C[C@H]1CC[C@H]2[C@@H](COC[C@@H](O)CN2Cc2ccccc2F)O1)N[C@H]1CCN(Cc2ccccc2)C1	inactive: 1.01
O=C(O)[C@@H]1CCCCN1	inactive: 1.03
COc1ccc(NC(=O)N(C)C[C@@H]2OCCCC[C@@H](C)Oc3ccc(NC(=O)Nc4c(C)noc4C)cc3C(=O)N([C@H](C)CO)C[C@@H]2C)cc1	inactive: 0.995
CC(C)[N+]1(C)C2CCC1CC(OC(=O)C(CO)c1ccccc1)C2.[Br-] (configuration not stated)	inactive: 1.17
COc1ccc(NC(=O)Nc2ccc3c(c2)C(=O)N([C@@H](C)CO)C[C@H](C)[C@@H](CN(C)CC2CCCCC2)O3)cc1	inactive: 0.959
CC(C)=CCC/C(C)=C/C(=O)O	inactive: 0.7
COc1cccc(-c2ccc3n(c2=O)C[C@H]2[C@H](CO)[C@@H](C(=O)NCC4CC4)[C@@H]3N2S(C)(=O)=O)c1	inactive: 1.01
CC1=C(C(=O)O)N2C(=O)[C@@H](NC(=O)[C@@H](N)c3ccc(O)cc3)[C@H]2SC1	inactive: 0.999
C[C@@H]1CCCCO[C@H](CN(C)Cc2ccncc2)[C@H](C)CN([C@H](C)CO)C(=O)c2cc(NC(=O)Nc3ccc(F)cc3)ccc2O1	inactive: 0.99
O=C(CN1CCOCC1)NCC[C@H]1CC[C@@H](NC(=O)c2ccc3c(c2)OCO3)[C@@H](CO)O1	inactive: 0.99
C[C@@H]1O[C@@H](O[C@H]2[C@H](O[C@H]3[C@H](O)[C@@H](O[C@@H]4O[C@H](CO)[C@@H](O[C@@H]5O[C@H](CO)[C@H](O)[C@H]5O)[C@H](O)[C@H]4O)[C@H](O[C@H]4CC[C@]5(C)[C@H]6CC[C@]78OC[C@@]9(CCC(C)(C)C[C@@H]97)[C@H](O)C[C@@]8(C)[C@]6(C)CC[C@H]5C4(C)C)O[C@@H]3C(=O)O)O[C@H](CO)[C@H](O)[C@@H]2O)[C@H](O)[C@H](O)[C@H]1O	inactive: 0.973

SMILES	relative growth
C[C@H](CO)N1C[C@H](C)[C@@H](CN(C)Cc2ccc(Cl)c(Cl)c2)Oc2ccc(NC(=O)CCC(F)(F)F)cc2CC1=O	inactive: 0.999
C[C@@H]1CCCCO[C@@H](CN(C)C(=O)c2ccccc2)[C@H](C)CN([C@@H](C)CO)C(=O)c2cc(NC(=O)Nc3ccccc3)ccc2O1	inactive: 0.992
CN(C)CCN(Cc1cccs1)c1ccccn1.Cl	inactive: 0.976
COc1ccc(C#Cc2ccc3c(c2)O[C@H](CN(C)S(=O)(=O)c2ccccc2F)[C@@H](C)CN([C@@H](C)CO)S3(=O)=O)cc1	inactive: 0.998
N[C@@H](Cn1ccc(=O)c(O)c1)C(=O)O	inactive: 0.752
C[C@@H]1CN([C@H](C)CO)C(=O)c2cc(NS(=O)(=O)c3ccc(F)cc3)ccc2O[C@@H]1CN(C)S(=O)(=O)c1ccc(F)cc1	inactive: 0.974
C[C@H]1CN([C@@H](C)CO)C(=O)c2cccc(NC(=O)C3CCCCC3)c2O[C@@H]1CN(C)C(=O)Nc1cccc2ccccc12	inactive: 0.966
CC(C)(C)c1cc(CN)n[nH]1	inactive: 1.02
C[C@H](CO)N1C[C@H](C)[C@@H](CN(C)Cc2ccc(C(F)(F)F)cc2)OCCCC[C@H](C)Oc2ccc(NC(=O)c3ccccc3)cc2C1=O	inactive: 0.978
COc1ccc2c3c(n(c2c1)C)[C@@H](CO)N(CC1CCOCC1)C[C@]13CCN(CC1)C(=O)c1cnccn1	inactive: 0.998
Cc1noc(C)c1S(=O)(=O)Nc1ccc2c(c1)C(=O)N([C@H](C)CO)C[C@@H](C)[C@H](CN(C)S(=O)(=O)c1cn(C)cn1)O2	inactive: 0.992
C[C@@H]1CN([C@@H](C)CO)C(=O)c2cc(NC(=O)CCC(F)(F)F)ccc2O[C@H]1CN(C)S(C)(=O)=O	inactive: 0.994
COc1ccc2c3c(n(c2c1)C)[C@H](CO)N(C[C@]13CN(Cc2ccncc2)C1)C(=O)CN1CCOCC1	inactive: 0.996
C[C@@H]1CCCCO[C@H](CN(C)Cc2ccc(C(F)(F)F)cc2)[C@@H](C)CN([C@@H](C)CO)C(=O)c2cc(NC(=O)CCCN(C)C)ccc2O1	inactive: 0.974
COC(=O)c1c2oc(c1C(=O)OC)C(=O)N(C)Cc1cn(nn1)C[C@@H](Cc1ccccc1)NC(=O)N[C@H](CO)CC2	inactive: 1
C[C@H]1CCCCO[C@H](CN(C)Cc2ccncc2)[C@@H](C)CN([C@@H](C)CO)C(=O)c2cc(NC(=O)Nc3ccc4c(c3)OCO4)ccc2O1	inactive: 0.976
C[C@H](CO)N1C[C@H](C)[C@H](CN(C)Cc2ccc(-c3ccccc3)cc2)Oc2c(NS(=O)(=O)c3ccc(F)cc3)cccc2C1=O	inactive: 0.995
C[C@H]1CN([C@@H](C)CO)C(=O)c2cccc(NC(=O)CCCCCC(=O)Nc3ccccc3N)c2O[C@@H]1CN(C)CC1CCCCC1	inactive: 0.981
COc1ccc(CN(C)C[C@H]2OCCCC[C@H](C)Oc3ccc(NS(=O)(=O)c4ccc(OC)cc4)cc3C(=O)N([C@H](C)CO)C[C@@H]2C)cc1	inactive: 1.01
CCS(=O)(=O)NCC[C@H]1CC[C@H](NS(=O)(=O)c2ccccc2C)[C@@H](CO)O1	inactive: 0.989
COc1ccc(CN(C)C[C@@H]2Oc3c(NC(=O)c4cnccn4)cccc3C(=O)N([C@@H](C)CO)C[C@H]2C)cc1	inactive: 0.992

SMILES	relative growth
C[C@H](CO)N1C[C@H](C)[C@H](CN(C)S(=O)(=O)c2cn(C)cn2)Oc2ncc(-c3cccc(C(F)(F)F)c3)cc2C1=O	inactive: 1.06
C[C@H](CO)N1C[C@H](C)[C@@H](CN(C)C(=O)Nc2ccc3c(c2)OCO3)Oc2c(NC(=O)C3CCOCC3)cccc2C1=O	inactive: 0.958
COc1ccc(S(=O)(=O)N(C)C[C@@H]2OCCCC[C@H](C)Oc3ccc(NC(=O)Nc4c(C)noc4C)cc3C(=O)N([C@H](C)CO)C[C@H]2C)cc1	inactive: 0.992
C[C@@H]1CN([C@@H](C)CO)C(=O)c2cc(NC(=O)Nc3ccc(F)cc3)ccc2O[C@@H]1CN(C)S(=O)(=O)c1cn(C)cn1	inactive: 0.989
COc1ccc(CN(C)C[C@H]2OCCCC[C@@H](C)Oc3ccc(NS(=O)(=O)c4ccccc4)cc3C(=O)N([C@H](C)CO)C[C@@H]2C)cc1	inactive: 0.973
C[C@@H]1CCCCO[C@H](CN(C)Cc2ccc(C(F)(F)F)cc2)[C@H](C)CN([C@H](C)CO)C(=O)c2cc(NC(=O)NC3CCCCC3)ccc2O1	inactive: 0.912
C[C@H]1CCCCO[C@@H](CN(C)Cc2ccc(C(=O)Nc3ccccc3N)cc2)[C@@H](C)CN([C@@H](C)CO)C(=O)c2cc(N(C)C)ccc2O1	inactive: 0.998
CNC(=O)[C@@]12CCC3(CCN(C(=O)COC)CC3)[C@H]1CN(S(C)(=O)=O)C2	inactive: 1.05
C[C@@H]1CN([C@@H](C)CO)S(=O)(=O)c2ccc(C#Cc3ccccc3)cc2O[C@@H]1CN(C)C(=O)c1ccccn1	inactive: 1.03
Cc1ccc2ncccc2c1	inactive: 1.01
Cc1noc(C)c1S(=O)(=O)N(C)C[C@@H]1OCCCC[C@H](C)Oc2ccc(NC(=O)Nc3ccc(F)cc3)cc2C(=O)N([C@H](C)CO)C[C@H]1C	inactive: 1.05
C[C@H](CO)N1C[C@H](C)[C@@H](CN(C)Cc2ccc(C(F)(F)F)cc2)Oc2ccc(NC(=O)CCCCCC(=O)Nc3ccccc3N)cc2CC1=O	inactive: 1.01
O=CC(O)C(O)C(O)CO (configuration not stated)	inactive: 1.02
C[C@@H]1CN([C@H](C)CO)C(=O)c2ccccc2-c2ccccc2CO[C@H]1CN(C)C(=O)Nc1cccc(F)c1	inactive: 1.01
C[C@@H]1COCCN1	inactive: 0.934
C[C@H]1CN([C@@H](C)CO)S(=O)(=O)c2ccc(C#CC(C)(C)O)cc2O[C@@H]1CN(C)C(=O)CN(C)C	inactive: 1
COc1cc(CN)cc(OC)c1OC	inactive: 1
CN(CCN)C1CCCCC1	inactive: 0.987
COc1ccccc1S(=O)(=O)N[C@H]1C=C[C@@H](CC(=O)N2CCOCC2)O[C@@H]1CO	inactive: 1
C[C@H](CO)N1C[C@H](C)[C@H](CN(C)S(=O)(=O)c2ccc(Cl)cc2)Oc2ccc(NC(=O)C3CC3)cc2C1=O	inactive: 0.997
